Reference: a compilation of properties of binary mixtures (doi:10.1016/j.jct.2005.07.020)
The densities may have been worked out from excess volumes.

Assay: xn = mol fraction of the nth substance listed
Settings: 298.15 K, 101 kPa

CC(C)=O + CCCCCC[n+]1ccn(C)c1.F[P-](F)(F)(F)(F)F
Settings	mass density [kg/m3]
x1 = 1	784.4

CCCCCC[n+]1ccn(C)c1.F[P-](F)(F)(F)(F)F + CCC(C)=O
Settings	mass density [kg/m3]
x2 = 0.0517	1285.2
x2 = 0.0988	1276.4
x2 = 0.1964	1256.5
x2 = 0.2988	1232.5
x2 = 0.3994	1204.8
x2 = 0.5005	1170.9
x2 = 0.5963	1132
x2 = 0.7071	1075
x2 = 0.8094	1006.3
x2 = 0.9023	922.6
x2 = 0.9421	878.3

CCCCCC[n+]1ccn(C)c1.F[P-](F)(F)(F)(F)F + CCOC(C)=O
Settings	mass density [kg/m3]
x2 = 0.1006	1278.6
x2 = 0.198	1261.7
x2 = 0.4076	1215.7
x2 = 0.5083	1187.1
x2 = 0.6003	1155.5
x2 = 0.6995	1113.8
x2 = 0.7971	1062
x2 = 0.8982	991.3
x2 = 0.9415	954

CCCCCC[n+]1ccn(C)c1.F[P-](F)(F)(F)(F)F + CCCC(C)=O
Settings	mass density [kg/m3]
x2 = 0	1293.7
x2 = 0.2961	1222.3
x2 = 0.4017	1189.1
x2 = 0.5054	1150.5
x2 = 0.6015	1108.2
x2 = 0.7066	1052.5
x2 = 0.804	988.4
x2 = 0.9068	902.8
x2 = 0.9462	863.5

CCCCCC[n+]1ccn(C)c1.F[P-](F)(F)(F)(F)F + COC(C)=O
Settings	mass density [kg/m3]
x2 = 0	1293.7
x2 = 0.0501	1288.3
x2 = 0.0998	1282.6
x2 = 0.1957	1270.3
x2 = 0.298	1254.8
x2 = 0.3753	1240.9
x2 = 0.5925	1188.1
x2 = 0.712	1144.6
x2 = 0.7934	1105.1
x2 = 0.9033	1029.7
x2 = 0.9589	976.4

CCCCCC[n+]1ccn(C)c1.F[P-](F)(F)(F)(F)F + CCOC(=O)OCC
Settings	mass density [kg/m3]
x1 = 0.0098	976.1
x2 = 0	1293.7
x2 = 0.0502	1286.2
x2 = 0.1003	1278.8
x2 = 0.2981	1244.3
x2 = 0.3948	1223.6
x2 = 0.6005	1167.5
x2 = 0.7012	1131.7
x2 = 0.8011	1088.2
x2 = 0.8546	1060.7
x2 = 0.8702	1052.1

COC(=O)OC + CCCCCC[n+]1ccn(C)c1.F[P-](F)(F)(F)(F)F
Settings	mass density [kg/m3]
x1 = 1	1063.3

CCCCOC(C)=O + CCCCCC[n+]1ccn(C)c1.F[P-](F)(F)(F)(F)F
Settings	mass density [kg/m3]
x1 = 1	876.3

CCCCCC[n+]1ccn(C)c1.F[P-](F)(F)(F)(F)F + CC(C)=O
Settings	mass density [kg/m3]
x2 = 0	1293.7
x2 = 0.0482	1286.8
x2 = 0.089	1280.9
x2 = 0.1826	1265.4
x2 = 0.2873	1244.9
x2 = 0.3971	1218.6
x2 = 0.532	1176.8
x2 = 0.6379	1132.8
x2 = 0.7225	1087.3
x2 = 0.8067	1027.6
x2 = 0.9089	925.4
x2 = 0.9538	864.1

COC(C)=O + CCCCCC[n+]1ccn(C)c1.F[P-](F)(F)(F)(F)F
Settings	mass density [kg/m3]
x1 = 1	926.9

CCCC(C)=O + CCCCCC[n+]1ccn(C)c1.F[P-](F)(F)(F)(F)F
Settings	mass density [kg/m3]
x1 = 1	801.4

CCOC(=O)OCC + CCCCCC[n+]1ccn(C)c1.F[P-](F)(F)(F)(F)F
Settings	mass density [kg/m3]
x1 = 1	969.2

CCCCCC[n+]1ccn(C)c1.F[P-](F)(F)(F)(F)F + CCCCOC(C)=O
Settings	mass density [kg/m3]
x2 = 0	1293.7
x2 = 0.0504	1283
x2 = 0.106	1270.5
x2 = 0.2035	1246.7
x2 = 0.3082	1217.8
x2 = 0.4216	1182.3
x2 = 0.4934	1157.1
x2 = 0.7055	1066
x2 = 0.7946	1017.8
x2 = 0.9087	945.2
x2 = 0.9635	905.2

CCCCCC[n+]1ccn(C)c1.F[P-](F)(F)(F)(F)F + COC(=O)OC
Settings	mass density [kg/m3]
x2 = 0.0999	1286.6
x2 = 0.1967	1278.8
x2 = 0.3001	1269
x2 = 0.4015	1257.3
x2 = 0.4957	1244.2
x2 = 0.7065	1202.1
x2 = 0.8085	1170.4
x2 = 0.8974	1131.2
x2 = 0.9476	1101.7
